Whole data set: some 5,400 compounds, median “IFI” near 2, cut for the highest 2% near 22. This is one part of the list.

This assay in a line: NOVARTIS: Inhibition Frequency Index (IFI) - the number of HTS assays where a compound showed > 50% inhibition/induction, expressed as a percentage of the number of assays in which the compound was tested. In kind it is functional.
As to `Cc1nc(N2CCCCC2)c2c(C)c(C(=O)N3CCN(c4ccccc4F)CC3)sc2n1`, the IFI was 0%.
The value for `CCN1C(=Cc2sc3ccc(O)cc3[n+]2CC)C=Cc2cc(C)ccc21` was 15.4%.
`CCCC[C@@H](C)[C@@H](O)[C@H]1C(=O)N[C@@H](C(C)C)C(=O)N(C)[C@H](SC)C(=O)N(C)[C@@H](CC(C)C)C(=O)N[C@@H](C(C)C)C(=O)N(C)[C@@H](CC(C)C)C(=O)N[C@@H](C)C(=O)N[C@H](C)C(=O)N(C)[C@@H](CC(C)C)C(=O)N(C)[C@@H](CC(C)C)C(=O)N(C)[C@@H](C(C)C)C(=O)N1C` had an IFI of 4.88%.
`Cc1cc2c(Nc3cccc(Cl)c3C)ncnc2s1` yielded an IFI of 0%.
On to `CCc1cccc(NC(=O)N2CCN(C(=O)c3nc(-c4ccccc4)nc(C)c3C(=O)OC(C)C)CC2C)c1` (centres undefined), for which the IFI turned out to be 1.89%.
With `CC(=O)Oc1ccc(C(=O)C(C(C)=O)c2ccccc2)c(OC(C)=O)c1` (centres undefined), the IFI turned out to be 0%.
The compound `CCOc1ccccc1C(=O)NC(Nc1sc2c(c1C(N)=O)CCCC2)(C(F)(F)F)C(F)(F)F` yielded an IFI of 0%.
`CC(=O)N1CCN(c2ccc(NC(=S)NC(=O)c3ccc(C)cc3)cc2)CC1`: the IFI was 0%.
Compound `COc1ccc(NC(=O)CCCCCn2c(SCc3cc(=O)oc4cc(O)ccc34)nc3ccsc3c2=O)cc1` gave an IFI of 0%.
`COCOc1ccc(-c2nc(-c3ccncc3)cnc2N)cc1` had an IFI of 0%.
For the compound `C[C@H](Nc1cncc(-c2cccc(OC(F)(F)F)c2)n1)c1ccccc1`, the IFI amounted to 0%.
`CC(CCc1ccccc1)NCC(O)c1cccc([N+](=O)[O-])c1` (centres undefined): the IFI was 2.38%.
`COc1cc(OC)cc(C(=O)Nc2cc(C(=O)N3CCC(Cc4ccccc4)CC3)ccc2N2CC3CC(C2)c2cccc(=O)n2C3)c1` (centres undefined) came in with an IFI of 0%.
For `CC(=O)C1C(=O)c2c(cccc2[N+](=O)[O-])C1=Nc1ccccc1C` (centres undefined), the IFI came to 0%.
The figure for `Cn1cnnc1SCC(=O)Nc1ccccc1C(F)(F)F` is 0%.
Regarding `CCOC(=O)CCCSc1nc(-c2cccs2)cc(C(F)(F)F)c1C#N`, the IFI was 7.27%.
Compound `O=C(NCCCCNc1ccnc2cc(Cl)ccc12)c1cc(C(F)(F)F)cc(C(F)(F)F)c1` showed an IFI of 1.85%.
In turn, `Clc1ncnc2ncn(Cc3ccccc3)c12` came in with an IFI of 0%.
`CCOC(=O)c1cnc2ccc(CC)cc2c1O` had an IFI of 0%.
Compound `Cc1ccc(F)cc1NC(=O)Cn1c2ccccc2c(=O)c2cc(Cl)ccc21` registered an IFI of 0%.
The compound `Cc1cc(C)n(CC(O)Cn2c3ccc(I)cc3c3cc(I)ccc32)n1` (centres undefined) showed an IFI of 0.725%.
The figure for `CCCC(=O)Oc1ccccc1-c1nc2cc(C)ccn2c1NC(C)(C)CC(C)(C)C` is 4.63%; for `OC1(c2cccc3ccccc23)CCN(Cc2ccccc2)C1` (centres undefined) it is 2.17%; for `COc1ccccc1C(=O)NN=C(C)c1cccnc1` it is 0.73%.
In turn, `Cc1cc(NC(c2cccc(Br)c2)c2ccc3cccnc3c2O)no1` (centres undefined) displayed an IFI of 4.35%.
The figure for `Cc1c(Cl)cccc1NC(=O)C1C(C(=O)O)C2C=CC1C21CC1` (centres undefined) is 7.69%; for `Cc1n(N)c2ccccc2[n+]1CC(=O)c1ccc([N+](=O)[O-])cc1` it is 0%; for `Cc1nc2ccc(-c3ccc4nc(C)[nH]c4c3)cc2[nH]1` it is 3.08%.
The value for `CCCNC(=O)N1CCC2(CC1)CC(=O)c1ccccc1O2` was 0%; that for `O=C(COc1ccc(-c2ncccn2)cc1CN1CCCCCC1)NCc1ccccc1C(F)(F)F` was 2.8%; that for `Cc1cc2c(cc1C)NC(c1ccc(Cl)c(F)c1)C1=C(CC(C)(C)CC1=O)N2` (centres undefined) was 1.21%.
Regarding `CCN(CC)C1SC=C(c2ccc([N+](=O)[O-])cc2)S1` (centres undefined), the IFI worked out at 0%.
The figure for `CC(c1nc2ccccc2c(=O)n1-c1ccc(Br)cc1)N1CCN(S(=O)(=O)c2ccc3ccccc3c2)C(C)C1` (centres undefined) is 1.87%; for `CCCCCCCCn1c(C)[n+](CC)c2cc(C(=O)OCC)ccc21` it is 7.14%.
For the compound `O=c1cc[nH]c2cc(N3CCCCCC3)c(F)cc12`, the IFI was 0%.
The value for `CC(=NNc1nc(-c2ccccc2O)nc2ccccc12)c1ccccc1O` was 0%.
`CN(C)c1nnc(/C(C#N)=C/c2cc(C(=O)c3cccc(Cl)c3)cn2C)o1` showed an IFI of 0.848%.
Turning to `CC(=O)NC1=NN(C(C)=O)C(c2ccc(Br)cc2)S1` (centres undefined), the IFI worked out at 2.13%.
The value for `O=S(=O)(Oc1ccc2ccccc2c1Cc1c(OS(=O)(=O)c2ccccc2)ccc2ccccc12)c1ccccc1` was 0%.
In turn, `CCCCCCN(C(=O)COCc1ccccc1)C(C)c1nc2ccccc2c(=O)n1-c1cccc(Cl)c1C` (centres undefined) yielded an IFI of 0.935%.
The value for `CCCCC(=O)N(C/C=C/c1ccccc1OC)CCN1CCN(C(=O)NC23CC4CC(CC(C4)C2)C3)CC1` was 2.75%; that for `c1cc2cc3c(cc2c2cc4c(cc12)C[N+]1(CCCC1)C4)C[N+]1(CCCC1)C3` was 1.54%; that for `CS(=O)(=O)c1ccccc1S(=O)(=O)N1CCC(NC(=O)c2ccccc2Cl)(C(=O)O)CC1` was 2.94%.
`O=C(Cn1c(=O)oc2cc(Cl)ccc21)c1ccccc1` yielded an IFI of 1.51%.
`Cc1cc(-c2cnc(C)nc2C2CCN(C(=O)c3ccc4ncccc4c3)CC2)on1` displayed an IFI of 0%.
`CN(C)C(=O)C1C2NC(=S)N(c3ccccc3)C1(C)Oc1ccccc12` (centres undefined): the IFI was found to be 0%.
The figure for `CCCCCCCCCCCCCC(=O)Oc1ccccc1-c1nc2cc(C)ccn2c1NC(C)(C)CC(C)(C)C` is 3.7%.
The compound `CCOC(=O)C1=C(N)N(c2cccc([N+](=O)[O-])c2)C2=C(C(=O)CC(C)(C)C2)C1c1ccc(Cl)cc1` (centres undefined) yielded an IFI of 0%.
Compound `O=C(C(Cc1ccc(O)cc1)c1ccccc1)N1CCC(n2c(Cc3ccc(F)cc3)nc3cccnc32)CC1` (centres undefined) displayed an IFI of 7.07%.
In the case of `CCOC(=O)c1cnc2ccc(C)cc2c1NCCCN1CCOCC1`, the IFI is 4.76%.
`COc1cc(OC)cc(-n2nc(C(=O)NCCCN3CC(C)CC(C)C3)c3ccccc3c2=O)c1` (centres undefined): the IFI is 0%.
As for `CCOC(=O)C1=C(C)NC2=C(C(=O)CC(c3ccc(OC)c(OC)c3)C2)C1c1ccccc1OC` (centres undefined), the IFI stood at 2.33%.
`CCc1ccccc1N=C1c2c(cccc2[N+](=O)[O-])C(=O)C1C(C)=O` (centres undefined) came in with an IFI of 0%.
On to `O=C(CSc1nc(NCc2ccccc2)c2ccccc2n1)NCc1ccco1`, for which the IFI was 0%.
On to `COCCOC(=O)C1=C(C)NC2=C(C(=O)CC(c3ccc(OC)c(OC)c3)C2)C1c1ccc(Cl)cc1Cl` (centres undefined), for which the IFI came out at 3.53%.
`O=C1N(Cc2cc3ccccc3s2)CC2CN(Cc3cccc4c3OCO4)CCN12` (centres undefined) registered an IFI of 1.39%.
In turn, `Cc1cccc(N2C(N)=NC(N)=NC2(C)C)c1` registered an IFI of 0%.
For the compound `Cc1nc(-c2ccccc2)nc(C(=O)N2CCN(C(=O)NC3CCCCC3)C(C)C2)c1C(=O)OC(C)C` (centres undefined), the IFI was 2.83%.
As for `O=C(c1cccc([N+](=O)[O-])c1)c1ccc(Cl)c(Cl)c1`, the IFI is 0%.
`CCCCNC(=O)C(c1cccc(OC)c1)N1C(=O)c2cc(OCCCC)ccc2NC(=O)C1CO` (centres undefined) returned an IFI of 0.98%.
As to `CN(C)c1ccc2c(c1)Sc1cc(N(C)C)ccc1N2C(=O)c1ccccc1`, the IFI was 3.88%.
On to `CCc1c(C)c(=N)c2ccccc2n1C`, for which the IFI was 0%.
The compound `Cc1nc([P+](c2ccccc2)(c2ccccc2)c2ccccc2)c(SCc2ccccc2)o1` displayed an IFI of 21.6%.
The value for `Cc1oc(C)c2c(=O)cc(-c3cccs3)cc(O)c12` was 2.75%.
In turn, `CCN1/C(=C/c2sc3ccc(OC)cc3[n+]2CC)C=Cc2cc(OC)ccc21` displayed an IFI of 15.4%.
The figure for `COCCNC(=O)c1ccc(OC2CCN(CC(c3ccccc3)c3ccccc3)CC2)c(OC)c1` is 1.37%; for `CCC(Oc1ccc(C(C)(C)CC)cc1C(C)(C)CC)C(=O)Nc1ccc([N+](=O)[O-])cc1O` (centres undefined) it is 0%.
The value for `Cc1ccc(-n2c(C(C)N(CCc3ccccc3)C(=O)c3cccc(F)c3)nc3ccccc3c2=O)c(C)c1` (centres undefined) was 0.943%; that for `CCCC(=O)NC(c1ccc(Cl)cc1)c1ccc2cccnc2c1O` (centres undefined) was 16%.
As for `CCOC(=O)C1=C(C)NC2=C(C(=O)CC(C)(C)C2)C1c1ccc(Cl)cc1` (centres undefined), the IFI turned out to be 0%.
The figure for `CCCCCc1ccc(C(=O)Oc2ccccc2-c2nc3cc(C)ccn3c2NC(C)(C)CC(C)(C)C)cc1` is 4.35%.
Compound `CCCC1=NN(c2nc3ccccc3s2)C(=O)C1` had an IFI of 0%.
The value for `Brc1ccc(C=Nc2ccc(-c3nc4cc(-c5ccc6[nH]c(-c7ccc(N=Cc8ccc(Br)cc8)cc7)nc6c5)ccc4[nH]3)cc2)cc1` was 23.1%.
The figure for `Clc1ccccc1C(c1ccccc1)(c1ccccc1)n1ccnc1` is 0%; for `O=C(c1ccccc1)N1CCN(CC(O)COCc2ccccc2)CC1` (centres undefined) it is 2.7%.
The figure for `Nc1nc(N)c2cc(S(=O)(=O)N3CCSCC3)ccc2n1` is 17.7%; for `CCOc1ccc2nc3ccc([N+](=O)[O-])cc3c(NC)c2c1` it is 7.14%; for `COC(=O)c1cc(NC(=S)NC(=O)c2c(OC)cccc2OC)cc(C(=O)OC)c1` it is 0%.
With `O=C(c1nccs1)C1CCN(C(=O)c2cscn2)CC1`, the IFI was 0%.
On to `CC1(C)CC(NC(=O)Cc2ccc(Cl)cc2)CC(C)(C)N1`, for which the IFI amounted to 0%.
The figure for `COC(=O)c1c(NC(=O)c2ccc(S(=O)(=O)N3CCOCC3)cc2)sc2c1CCN(C(C)=O)C2` is 0%; for `C=CCNC(=O)c1ccc2c(c1)N=C(CC(C)c1ccccc1)N(CCCN1CCCC1=O)C2` (centres undefined) it is 1.24%; for `Cc1cccc(C)c1NC(=O)N1CCN(C(=O)c2nc(-c3ccccc3)nc(C)c2C(=O)OC(C)C)CC1C` (centres undefined) it is 2.8%.
As to `COc1ccc(NC(=O)c2cnn(-c3ccccc3)c2NC(=O)c2ccco2)cc1`, the IFI came to 1.18%.
The compound `CCC1=[N+](C)c2cccc3cccc(c23)N1C` registered an IFI of 3.12%.
For the compound `Cc1cc(C)cc(NCC(O)Cn2c3ccc(Cl)cc3c3cc(Cl)ccc32)c1` (centres undefined), the IFI turned out to be 5%.
Take `CCCN1CCN(C(=O)C(=O)Nc2ccc3nc4n(c(=O)c3c2)CCCCC4)CC1`: the IFI turned out to be 0%.
The figure for `Ic1ccc(NCc2cn3ccccc3n2)cc1` is 8.21%; for `CCCn1nc(Oc2nc(NCC)cc(OC)n2)ccc1=O` it is 0%.
`O=[N+]([O-])c1ccc(-c2ccc(C=NNc3nc(Nc4ccccc4)nc(Nc4ccccc4)n3)o2)cc1` returned an IFI of 4.65%.
`Cc1cccc(Nc2ccccc2C(=O)OCC(=O)N2CC(=O)Nc3ccccc32)c1C` showed an IFI of 4.35%.
In turn, `O=C(Nc1ccc(F)cc1)N1CCN(c2ccc3nnc(-c4ccccc4)n3n2)CC1` came in with an IFI of 0%.
`CSC1=NC(C)(C)CC2(CC(c3ccc(C)cc3)c3cc(Cl)c(O)cc3O2)N1` (centres undefined) gave an IFI of 10.4%.
The compound `COc1cc(OC)c(N(C)C(=O)c2cn(C3CCCC3)c(=O)c3c2c2ccccc2n3C)cc1Cl` gave an IFI of 6.67%.

Values taken from ChEMBL document CHEMBL1156829.
